Experimental findings from article PMC12820563, “FoxP3 forms a head-to-head dimer in vivo and stabilizes its multimerization on adjacent microsatellites” are described below.

Some of the results follow.

The target of this assay is T1, MBP-FoxP1dN (Mus musculus, UniProt P58462 326-579).
T1 sequence: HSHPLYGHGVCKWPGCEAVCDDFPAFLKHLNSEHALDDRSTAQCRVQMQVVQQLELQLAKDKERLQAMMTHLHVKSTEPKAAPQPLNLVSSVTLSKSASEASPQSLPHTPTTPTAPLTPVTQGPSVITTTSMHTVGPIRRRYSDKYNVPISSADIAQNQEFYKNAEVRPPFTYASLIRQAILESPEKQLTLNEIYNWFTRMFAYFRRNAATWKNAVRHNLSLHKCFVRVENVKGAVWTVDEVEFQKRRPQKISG
Put plainly: PD-seq (MBP pull-down with sequencing); 20 mM Tris-HCl pH 7.5, 100 mM NaCl, 1.5 mM MgCl2, 0.4 uM protein, 0.1 uM dsDNA library, 30 min, room temperature, amylose pull-down; high values mean tight binding. As to conditions: protein: recombinant; tags: His6-MBP; chain copies: 2; dsDNA, one strand shown. In outline:
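Mouse FoxP3 or FoxP1 fragment lacking the N-terminus, His6-MBP-tagged and expressed in E. coli, was incubated at 0.4 µM with 0.1 µM Klenow-filled degenerate double-stranded DNA library for 30 min at room temperature in Tris pH 7.5 buffer with NaCl and MgCl2. Complexes captured on amylose resin were washed three times and their DNA sequenced on Illumina. Binding is reads-per-million enrichment of pull-down over input, replicates pooled.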
Take “GATGATTGTTCTCCCAGCTGATGAATTTGAACCATCGAGTAAACAAATTTTCCTAATCTTTCTGTTCAAGCGCCATCTAC”: the binding signal was 0.887 RPM ratio (pull-down/input).
For the sequence “GATGATTGTTCTCCCAGCTGATGAATTGCCCGCATCGAGTAAACAAATTTTCCTAATCTTTCTGTTCAAGCGCCATCTAC”, the binding signal was 1.15 RPM ratio (pull-down/input).
With “GATGATTGTTCTCCCAGCTGATGAATTGATGCCGTCGAGTAAACAAATTTTCCTAATCTTTCTGTTCAAGCGCCATCTAC”, the binding signal was 1.27 RPM ratio (pull-down/input).
For “GATGATTGTTCTCCCAGCTGATGAATTCAGCTAGTCGAGTAAACAAATTTTCCTAATCTTTCTGTTCAAGCGCCATCTAC”, the binding signal is 0.836 RPM ratio (pull-down/input).
In the case of “GATGATTGTTCTCCCAGCTGATGAATTTGACGTGTCGAGTAAACAAATTTTCCTAATCTTTCTGTTCAAGCGCCATCTAC” it was 0.845 RPM ratio (pull-down/input); in that of “GATGATTGTTCTCCCAGCTGATGAATTCCGTGCGTCGAGTAAACAAATTTTCCTAATCTTTCTGTTCAAGCGCCATCTAC”, 0.961 RPM ratio (pull-down/input); in that of “GATGATTGTTCTCCCAGCTGATGAATTGAGGCGATCGAGTAAACAAATTTTCCTAATCTTTCTGTTCAAGCGCCATCTAC”, 0.965 RPM ratio (pull-down/input).
In the case of “GATGATTGTTCTCCCAGCTGATGAATTCGCTATCTCGAGTAAACAAATTTTCCTAATCTTTCTGTTCAAGCGCCATCTAC” it was 0.828 RPM ratio (pull-down/input); in that of “GATGATTGTTCTCCCAGCTGATGAATTTTTGGTATCGAGTAAACAAATTTTCCTAATCTTTCTGTTCAAGCGCCATCTAC”, 1.09 RPM ratio (pull-down/input); in that of “GATGATTGTTCTCCCAGCTGATGAATTCCCATTGTCGAGTAAACAAATTTTCCTAATCTTTCTGTTCAAGCGCCATCTAC”, 0.951 RPM ratio (pull-down/input).
In the case of “GATGATTGTTCTCCCAGCTGATGAATTGCTAAGATCGAGTAAACAAATTTTCCTAATCTTTCTGTTCAAGCGCCATCTAC” it was 1.09 RPM ratio (pull-down/input); in that of “GATGATTGTTCTCCCAGCTGATGAATTGACAAGATCGAGTAAACAAATTTTCCTAATCTTTCTGTTCAAGCGCCATCTAC”, 1.27 RPM ratio (pull-down/input).
For the sequence “GATGATTGTTCTCCCAGCTGATGAATTAACCGGCTCGAGTAAACAAATTTTCCTAATCTTTCTGTTCAAGCGCCATCTAC”, the binding signal is 0.723 RPM ratio (pull-down/input).
The value for “GATGATTGTTCTCCCAGCTGATGAATTATAGATGTCGAGTAAACAAATTTTCCTAATCTTTCTGTTCAAGCGCCATCTAC” was 1.09 RPM ratio (pull-down/input).
The value for “GATGATTGTTCTCCCAGCTGATGAATTCGCGTGCTCGAGTAAACAAATTTTCCTAATCTTTCTGTTCAAGCGCCATCTAC” was 0.874 RPM ratio (pull-down/input); that for “GATGATTGTTCTCCCAGCTGATGAATTGGGCACCTCGAGTAAACAAATTTTCCTAATCTTTCTGTTCAAGCGCCATCTAC” was 0.85 RPM ratio (pull-down/input).
In the case of “GATGATTGTTCTCCCAGCTGATGAATTAATCCGCTCGAGTAAACAAATTTTCCTAATCTTTCTGTTCAAGCGCCATCTAC”, the binding signal was 0.855 RPM ratio (pull-down/input).
In the case of “GATGATTGTTCTCCCAGCTGATGAATTTCTGAAATCGAGTAAACAAATTTTCCTAATCTTTCTGTTCAAGCGCCATCTAC” it was 0.947 RPM ratio (pull-down/input).
As for “GATGATTGTTCTCCCAGCTGATGAATTTCCTCGGTCGAGTAAACAAATTTTCCTAATCTTTCTGTTCAAGCGCCATCTAC”, the binding signal is 0.78 RPM ratio (pull-down/input).
The value for “GATGATTGTTCTCCCAGCTGATGAATTAACCCATTCGAGTAAACAAATTTTCCTAATCTTTCTGTTCAAGCGCCATCTAC” was 0.909 RPM ratio (pull-down/input); that for “GATGATTGTTCTCCCAGCTGATGAATTATGTACATCGAGTAAACAAATTTTCCTAATCTTTCTGTTCAAGCGCCATCTAC” was 1.54 RPM ratio (pull-down/input); that for “GATGATTGTTCTCCCAGCTGATGAATTGCACGGTTCGAGTAAACAAATTTTCCTAATCTTTCTGTTCAAGCGCCATCTAC” was 1.03 RPM ratio (pull-down/input).
The value for “GATGATTGTTCTCCCAGCTGATGAATTTATTCATTCGAGTAAACAAATTTTCCTAATCTTTCTGTTCAAGCGCCATCTAC” was 1.08 RPM ratio (pull-down/input); that for “GATGATTGTTCTCCCAGCTGATGAATTCATAACATCGAGTAAACAAATTTTCCTAATCTTTCTGTTCAAGCGCCATCTAC” was 1.58 RPM ratio (pull-down/input).
In the case of “GATGATTGTTCTCCCAGCTGATGAATTCATGCATTCGAGTAAACAAATTTTCCTAATCTTTCTGTTCAAGCGCCATCTAC” it was 1.29 RPM ratio (pull-down/input).
Regarding “GATGATTGTTCTCCCAGCTGATGAATTGTTGGACTCGAGTAAACAAATTTTCCTAATCTTTCTGTTCAAGCGCCATCTAC”, the binding signal is 1.03 RPM ratio (pull-down/input).
In the case of “GATGATTGTTCTCCCAGCTGATGAATTTCGCATTTCGAGTAAACAAATTTTCCTAATCTTTCTGTTCAAGCGCCATCTAC” it was 1.28 RPM ratio (pull-down/input); in that of “GATGATTGTTCTCCCAGCTGATGAATTATTCTTGTCGAGTAAACAAATTTTCCTAATCTTTCTGTTCAAGCGCCATCTAC”, 1.16 RPM ratio (pull-down/input).
The value for “GATGATTGTTCTCCCAGCTGATGAATTCGTGCCGTCGAGTAAACAAATTTTCCTAATCTTTCTGTTCAAGCGCCATCTAC” was 0.843 RPM ratio (pull-down/input).
The value for “GATGATTGTTCTCCCAGCTGATGAATTGGTTACTTCGAGTAAACAAATTTTCCTAATCTTTCTGTTCAAGCGCCATCTAC” was 1.03 RPM ratio (pull-down/input).
Regarding “GATGATTGTTCTCCCAGCTGATGAATTAGCATAGTCGAGTAAACAAATTTTCCTAATCTTTCTGTTCAAGCGCCATCTAC”, the binding signal was 0.88 RPM ratio (pull-down/input).
In the case of “GATGATTGTTCTCCCAGCTGATGAATTGGAGAAGTCGAGTAAACAAATTTTCCTAATCTTTCTGTTCAAGCGCCATCTAC” it was 0.778 RPM ratio (pull-down/input).
